“And” between values parts separate entries of the source, which are not always exact repeats. Equal values may be shown once. The list shows a part of the results. Shown are side measurements of this screen, not its main read-out; they come without a call.
Legend:
Assay in all cases: Primary Screen for Target Class Profiling of Small Molecule Inhibitors of Methyltransferases
[1] = target: Glycine N-methyltransferase (Homo sapiens) (UniProt Q14749); settings: purified enzyme, MTase-Glo SAH luminescence; measured here: GNMT inhibition; at 40 µM; stronger effect = lower value
Outline: (§1)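 Each enzyme was assayed with SAM and its substrate. SAH formation detected by MTase-Glo luminescence; single-point 40 uM screen[…].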

[2] = target: Guanidinoacetate N-methyltransferase (Homo sapiens) (UniProt Q14353); settings: purified enzyme, MTase-Glo SAH luminescence; measured here: GAMT inhibition; at 40 µM; stronger effect = lower value
Outline: as §1

[3] = target: Histamine N-methyltransferase (Homo sapiens) (UniProt P50135); settings: purified enzyme, MTase-Glo SAH luminescence; measured here: HNMT inhibition; at 40 µM; stronger effect = lower value
Outline: as §1

[4] = target: Nicotinamide N-methyltransferase (Homo sapiens) (UniProt P40261); settings: purified enzyme, MTase-Glo SAH luminescence; measured here: NNMT inhibition; at 40 µM; stronger effect = lower value
Outline: as §1

[5] = target: Phenylethanolamine N-methyltransferase (Homo sapiens) (UniProt P11086); settings: purified enzyme, MTase-Glo SAH luminescence; measured here: PNMT inhibition; at 40 µM; stronger effect = lower value
Outline: as §1
% is set by controls: 0 for no effect and ±100 for the full control effect.

## Cc1ccc(C)c(C(=O)Cn2nc3n(CCC(C)C)c(=O)c4ccc(C(=O)NC(C)C)cc4n3c2=O)c1
[1]
  activity change, negative = inhibition: 4.15%
[2]
  activity change, negative = inhibition: 0%
[3]
  activity change, negative = inhibition: -0.148%
[4]
  activity change, negative = inhibition: 4.44%
[5]
  activity change, negative = inhibition: 4.96%

## Cc1cc2c(cc3n2CC(C)(C(=O)NC2CCCCC2)N(Cc2ccccc2C)C3=O)o1 (stereo not given)
[1]
  activity change, negative = inhibition: -2.78%
[2]
  activity change, negative = inhibition: 4.52%
[3]
  activity change, negative = inhibition: -1.26%
[4]
  activity change, negative = inhibition: -1.74%
[5]
  activity change, negative = inhibition: -3.7%

## CCOC(=O)c1cc2n(n1)CC(C)(C(=O)NCc1ccccc1)N(CCc1ccccc1OC)C2=O (stereo not given)
[1]
  activity change, negative = inhibition: 1.29%
[2]
  activity change, negative = inhibition: 0%
[3]
  activity change, negative = inhibition: 3.41%
[4]
  activity change, negative = inhibition: -4.97%
[5]
  activity change, negative = inhibition: 2.33%

## CCCCNc1nc2c(-c3cccc(F)c3)nnn2c2ccccc12
[1]
  activity change, negative = inhibition: -6.71%
[2]
  activity change, negative = inhibition: 6.29%
[3]
  activity change, negative = inhibition: -2.03%
[4]
  activity change, negative = inhibition: 0.719%
[5]
  activity change, negative = inhibition: -8.22%

## O=C(O)/C=C/c1ccc(O)c(O)c1
[1]
  activity change, negative = inhibition: -7.49%
[2]
  activity change, negative = inhibition: 9.68%
[3]
  activity change, negative = inhibition: 3.05%
[4]
  activity change, negative = inhibition: 0.156%
[5]
  activity change, negative = inhibition: 11.2%

## CCC(C)NC(=O)c1ccc2c(=O)n(C)c3nnc(SCC(=O)NC4CCCCC4)n3c2c1 (stereo not given)
[1]
  activity change, negative = inhibition: 7.14%
[2]
  activity change, negative = inhibition: 3.93%
[3]
  activity change, negative = inhibition: 4.9%
[4]
  activity change, negative = inhibition: 2.2%
[5]
  activity change, negative = inhibition: 2.27%

## CCCCc1nc2cc(/C=C/C(=O)NO)ccc2n1CCN(CC)CC
[1]
  activity change, negative = inhibition: 3.6% and -17.7%
[2]
  activity change, negative = inhibition: 5.9%
[3]
  activity change, negative = inhibition: -19.9% and -27.7%
[4]
  activity change, negative = inhibition: -9.43% and 10.1%
[5]
  activity change, negative = inhibition: 5.42% and 42.2%

## COc1ccc(OC)c(-c2nnc3ccc(-c4ccc(OC)c(O[C@@H]5CCOC5)c4)nn23)c1
[1]
  activity change, negative = inhibition: -18.7%
[2]
  activity change, negative = inhibition: -1.3%
[3]
  activity change, negative = inhibition: -1.73%
[4]
  activity change, negative = inhibition: -14.8%
[5]
  activity change, negative = inhibition: 1.21%

## O=C1CCCN1CCCN1C(=O)[C@@H]2C[C@@H](O)CN2C2(CN(C3CCC(F)(F)CC3)C2)C1=O
[1]
  activity change, negative = inhibition: -3.03%
[2]
  activity change, negative = inhibition: -4.35%
[3]
  activity change, negative = inhibition: -0.19%
[4]
  activity change, negative = inhibition: -4.87%
[5]
  activity change, negative = inhibition: -10%

## Cc1ccc(NC(=O)c2cc3c(s2)CN(C2CC2)C3)cc1
[1]
  activity change, negative = inhibition: -16.8%
[2]
  activity change, negative = inhibition: -2.55%
[3]
  activity change, negative = inhibition: -12.2%
[4]
  activity change, negative = inhibition: -5.18%
[5]
  activity change, negative = inhibition: -14.9%

## CCn1c(CO)nnc1C1CC(NC(=O)c2[nH]c3ccc(OC)cc3c2C)C1 (stereo not given)
[1]
  activity change, negative = inhibition: -12.7%
[2]
  activity change, negative = inhibition: -11%
[3]
  activity change, negative = inhibition: -8.04%
[4]
  activity change, negative = inhibition: -21.1%
[5]
  activity change, negative = inhibition: -22.8%

## COC(=O)c1cc2n(n1)CC(C)(C(=O)NC1CCCC1)N(c1cccc(Cl)c1C)C2=O (stereo not given)
[1]
  activity change, negative = inhibition: 0.129%
[2]
  activity change, negative = inhibition: 0%
[3]
  activity change, negative = inhibition: 3.24%
[4]
  activity change, negative = inhibition: 4.46%
[5]
  activity change, negative = inhibition: 2.12%

## C=CCn1c(=O)c2ccc(C(=O)NCC(C)C)cc2n2c(=O)n(CC(=O)Nc3ccccc3F)nc12
[1]
  activity change, negative = inhibition: 2.06%
[2]
  activity change, negative = inhibition: 0%
[3]
  activity change, negative = inhibition: 2.54%
[4]
  activity change, negative = inhibition: 0.109%
[5]
  activity change, negative = inhibition: -0.265%

## CCc1ccc(CN2C(=O)c3ccc(-c4ccccc4)n3CC2(C)C(=O)NC2CCC(C)CC2)cc1 (stereo not given)
[1]
  activity change, negative = inhibition: 1.07%
[2]
  activity change, negative = inhibition: 2.8%
[3]
  activity change, negative = inhibition: -2.15%
[4]
  activity change, negative = inhibition: -1.36%
[5]
  activity change, negative = inhibition: -0.849%

## Cc1cc2c(cc3n2CC(C)(C(=O)NC2CCCCCCC2)N(Cc2ccc(F)cc2)C3=O)o1 (stereo not given)
[1]
  activity change, negative = inhibition: -4.51%
[2]
  activity change, negative = inhibition: 2.18%
[3]
  activity change, negative = inhibition: 0.198%
[4]
  activity change, negative = inhibition: -2.96%
[5]
  activity change, negative = inhibition: -2.16%

## O=C(O)C1CCCN(CCC=C(c2ccccc2)c2ccccc2)C1 (stereo not given)
[1]
  activity change, negative = inhibition: -4%
[2]
  activity change, negative = inhibition: 6.04%
[3]
  activity change, negative = inhibition: 2.27%
[4]
  activity change, negative = inhibition: -8.17%
[5]
  activity change, negative = inhibition: -0.053%

## CC(C)c1cc(-c2n[nH]c(=O)n2-c2ccc3c(ccn3C)c2)c(O)cc1O
[1]
  activity change, negative = inhibition: -41.2%
[2]
  activity change, negative = inhibition: -19%
[3]
  activity change, negative = inhibition: -47.2%
[4]
  activity change, negative = inhibition: -52.7%
[5]
  activity change, negative = inhibition: -32.6%

## CCCN1C(=O)c2c(C(=O)NCc3ccccc3OCC)ncn2CC1(C)C(=O)NC1CCCC1 (stereo not given)
[1]
  activity change, negative = inhibition: 3.61%
[2]
  activity change, negative = inhibition: 0%
[3]
  activity change, negative = inhibition: 1.58%
[4]
  activity change, negative = inhibition: 5.63%
[5]
  activity change, negative = inhibition: 6.95%

## CC1(C(=O)NC2CCCC2)Cn2c(ccc2-c2ccco2)C(=O)N1CCN1CCCC1 (stereo not given)
[1]
  activity change, negative = inhibition: -3.07%
[2]
  activity change, negative = inhibition: 2.27%
[3]
  activity change, negative = inhibition: 6.56%
[4]
  activity change, negative = inhibition: 5.81%
[5]
  activity change, negative = inhibition: 1.57%

Reference: PubChem BioAssay AID1745853 (National Center for Advancing Translational Sciences (NCATS), 2022)
